± gives the standard deviation. Whole data set: some 5,500 sequences, median “pre-steady-state target cleavage rate” near 0.1, cut for the highest 2% near 0.64. The entries are a selection whose mix differs from that of the whole data set.
What follows are sequences tested on MIWI (PIWIL1) piRISC loaded with piRNA #2 (30 nt) (assay: pre-steady-state target cleavage rate (min^-1); MIWI and MILI are mouse PIWI proteins and EfPiwi is from a freshwater sponge; tags in brackets are library labels; higher = faster piRNA-guided slicing of the target). Conditions: guide: piRNA #2 5'p-UUAGGUAACCCAGUAGAUCCAGAGGAAUUC; auxiliary factor: 500 nM mouse GTSF1.
Procedure, shortened: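 Cleave-'n-Seq: 1 nM active affinity-purified piRISC with one synthetic guide and 0.1 nM transcribed, DNA-blocked target RNA library were mixed, with or without 500 nM GTSF1 partner protein, in HEPES–potassium acetate buffer at 33 °C for 0–8 or 0–960 min. Uncleaved targets were sequenced and normalised to depth and to weakly complementary targets, three trials were pooled, and k3 was capped at 0.0001 min^-1. The pre-steady-state cleavage rate was fitted […].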

Sequence	pre-steady-state target cleavage rate
GAAUUCCUCUGGAGUCUACUGGGUUACCUAA	0.311 ± 0.043
GAAUUCCUCUGGAUCUAGUGGGUAACCUAA	0.0723 ± 0.015
CUUAAGGACACGAUCUACUGGGUUACCUAA	0.0145 ± 0.0096
CUAUUCCUCUGGAUCUACUGGGUUAUCCUAA	0.401 ± 0.047
CUUAACCACUGGAUCUACAGGGUUACCUAA	0.258 ± 0.029
CUUAAGCUCUGGAUCUAGUGGGUUUCCUAA	0.0274 ± 0.0083
CUUAAGGAGUGGAUCUACUAGGUUACCUAA	0.0522 ± 0.011
CUUAACCUCUGGAUCUACUGGGUAACCUUA	0.0523 ± 0.011
CUUUUCCUCAGGUUCUACUGGGUUACCUAA	0.494 ± 0.043
CUUUUCCUCAGGAUCUACUGGGUUACCUAA	0.578 ± 0.054
CUUUUCCUCUGGUUCUACUCGGUUACCUAA	0.122 ± 0.011
CUUAAGGUCAGGAUGUACUGGGUUACCUAA	0.0289 ± 0.021
CAAUUCGUCUCGAUCUACUGGGUUACCUAA	0.556 ± 0.049
CUUAACCUCUGGAUCUUGAGGGUUACCUAA	0.00547 ± 0.0038
CAAUUCCUCAGGAUCUACUGGGUUACCAAA	0.534 ± 0.058
CUUUUCCUCUGGAUCUACUGGGCUACCUAA	0.148 ± 0.02
GAAUUCCUCUGGAUCUACAGGGUUACCAAA	0.201 ± 0.022
GAAUGCCUCUGGAUCUACUGGGUUACCUAA	0.148 ± 0.034
CUUUUCGUCUGGAUCUACUGCGUUACCUAA	0.306 ± 0.034
GAAUUCCUCUCGAUCUACUGGGAUACCUAA	0.522 ± 0.049
CUUAUCCUCUGGAACAACUGGGUUACCUAA	0.423 ± 0.036
CUUAAGGUCUGGAUCAAGUGGGUUACCUAA	0.00395 ± 0.0036
CUUAAGGAGUGGAUCUACUGGGUUACCUAA [g2:g21:cont:t1A]	0.185 ± 0.03
CUUAAGAUCUGGAUCUACUGGGUUACCUAA	0.288 ± 0.043

Sequence	pre-steady-state target cleavage rate
CUUAACCUCUGGAUCUAAUGGGUUACCUAA	0.0928 ± 0.014
CUUAAGGAGACCAUCUACUGGGUUACCUAG [g2:g18:cont:t1G]	0.00455 ± 0.004
CUUAAGCUCUUGGAUCUACUGGGUUACCUAA	0.147 ± 0.013
CUUUUCCUCUGUAUCUACUGGGUUACCUAA	0.368 ± 0.045
CUUAACCUCUGGAUCUACUGCCUUACCUAA	0.0472 ± 0.0092
CUUAAGGAGAGGAUCUACUGGGUUCCCUAA	0.00452 ± 0.0036
GAAUUCGUCUGGAUCUACUGGGUUACCUUA	0.311 ± 0.07
CUUAAGGAGUGGAUCUACUGGGUUUCGUAA	0.00615 ± 0.0034
CAAUUCCUCUGGAUGUACUGGGAUACCUAA	0.271 ± 0.031
CUUAAGGACUGGAUCUACAGGGUAACCUAA	0.013 ± 0.013
CUAUUCCACUGGAUCUACUGGGUAACCUAA	0.306 ± 0.049
CUUAAGGUCUGGAUCUACAGGGAUACCUAA	0.115 ± 0.016
CUUAAGGUCUGGAUCUAUUGGGUUACCUAA	0.157 ± 0.024
CUUAAGGUCUGGAUCUACUGGGUUGACCUAA	0.2 ± 0.029
CUUAAGGAGACCUACUACUGGAUUACCUAA	0.00279 ± 0.0025
CAAUUCCUCUGGAUCUAGUGGGUUACCAAA	0.157 ± 0.03
CUUAUCCUCUGGAACUACUCGGUUACCUAA	0.104 ± 0.013
CUUAAGGAGUGGAUCUACUGGGUUCCCUAA	0.0254 ± 0.0073
CUUAAGGUCUGGAUCUACUGGGUAUACCUAA	0.175 ± 0.029
CAAUUCCUCUGGAUCGACUGGGUUACCUAA	0.234 ± 0.045
CUUAAGGUCUGGAACUUCUGGGUUACCUAA	0.0549 ± 0.033
CUUAAGGUCUGGUUCUACUGGGUUAGCUAA	0.0673 ± 0.018
CUUAAGGAGAGGAUCUACUGGGUUACCUAU [g2:g20:cont:t1U]	0.0261 ± 0.0083
GAAUUCCACUGGAUCUACUGGGUAACCUAA	0.413 ± 0.052

Sequence	pre-steady-state target cleavage rate
CUUAAGGUCAGCAUCUACUGGGUUACCUAA	0.00553 ± 0.0032
CUUAACCUCUGGAUCUCCUGGGUUACCUAA	0.123 ± 0.019
CUUAAGGUCUGGAACUACUGGGUUACCAAA	0.0242 ± 0.02
GAAUUCCUCUGGACUACUGGGUUACCUAA	0.275 ± 0.05
CUAUUCCUCUGGAUCACUGGGUUACCUAA	0.0267 ± 0.0074
CUAUACGUCUGGAUCUACUGGGUUACCUAA	0.401 ± 0.045
CUUAACCUCUCGAUCUACUGGGUUUCCUAA	0.322 ± 0.038
GAACUCCUCUGGAUCUACUGGGUUACCUAA	0.0999 ± 0.031
CUUAACCUCUGGAUGUACUGGCUUACCUAA	0.0887 ± 0.012
CUUUUCCUCUGGAUCUACUGGGUUACUCUAA	0.234 ± 0.037
CUUAAGGAGUGGUUCUACUGGGUUACCAAA	0.0064 ± 0.0031
CAAAUCCUCUGGAUCUACUGGGUUACCAAA	0.49 ± 0.072
CUUAAGGAGACGAUCUACUGGCGUUACCUAA	0.0106 ± 0.0039
CUUAAGGAGACCUAGAUGACGCGUUACCUAA	0.00385 ± 0.0021
CUAUUCCUCUGGAUCAACUGGGUUACGUAA	0.441 ± 0.051
CAAUUCCUCUGGAACUUCUGGGUUACCUAA	0.413 ± 0.041
CUUAACCUCUGGAUCUACACGGUUACCUAA	0.169 ± 0.016
CUAAUUCCUCUGGAUCUACUGGGUUACCUAA	0.284 ± 0.034
GAUUUCCUCUGGAUCUACUGGGUUACGUAA	0.537 ± 0.066
CAAUUCCUCUGGUUCUACUGGGUUACCAAA	0.515 ± 0.086
CAAUUCCUCAGGAUCUACUGGGAUACCUAA	0.444 ± 0.05
CUUUUCCUCUGGAAGUACUGGGUUACCUAA	0.573 ± 0.035
CUUAAGGACUGGAUCUACCGGGUUACCUAA	0.0324 ± 0.011

— the supplement of paper PMC10338343
